84 molecules from ChEMBL document CHEMBL4888484, “Replenishing the malaria drug discovery pipeline: Screening and hit evaluation of the MMV Hit Generation Library 1 (HGL1) against asexual blood stage Plasmodium falciparum ,using a nano luciferase reporter read-out” (2022) can be followed below.

The whole screen tested about 150,000 compounds, of which about 540 (0.36%) showed an effect of 50% or more. This is one part of the list.

The subject of this test is Plasmodium falciparum. Nature of the test: Primary screen in NF54 nanoGlo assay, in single point, at 2uM, 72h; a lower Z score goes with more inhibition. The conditions noted are these: timepoint 72 hour. The test is classed as functional, Erythrocyte.
`COc1cc(F)ccc1-c1c(-c2ccccc2)ncn1CC1CCOCC1`: the “% Inhibition” value is reported as -3% and the Z score is listed as 0.59.
As for `O=C(NC(CC1CCCc2ccccc21)C(=O)O)c1ccncc1` (stereo not drawn), the “% Inhibition” value was -13% and the Z score was 1.08.
As for `CCNc1nc(C(=O)N2CCC(F)(F)[C@@H](C)C2)cs1`, the “% Inhibition” value is recorded as -6% and the Z score is recorded as 0.78.
With `COC(=O)[C@@H]1C[C@@H](O)CN1CCN1C(=O)c2ccccc2C1=O`, the “% Inhibition” value is recorded as -10% and the Z score is reported as 1.46.
Take `CN1C(=O)CN(C(=O)Cn2cnc3ccccc3c2=O)c2ccccc21`: the “% Inhibition” value is -8% and the Z score stood at 0.95.
For `Cc1n[nH]cc1CNC(=O)CCCc1nnc(C(=O)Nc2cccc(F)c2)s1`, the “% Inhibition” value is recorded as -5% and the Z score is reported as 0.67.
Taken in the same sequence, the figures for `Cc1csc(CCNC(=O)N(C2CC2)[C@@H](C)C2CC2)n1` were -11% and 1.45.
Taken in the same sequence, the figures for `COc1cccc(CNc2ncnc3c(-c4ccccc4)noc23)c1` were -10% and 1.35.
For the molecule `O=C(N[C@H]1CCS(=O)(=O)C1)c1c(-c2ccccc2)c(-c2ccccc2)n[nH]c1=O`, the “% Inhibition” value is on record as -8% and the Z score was found to be 1.35.
On to `Cc1nn(C)c(C)c1CCN(C)C(=O)NCC(C)C`, for which the “% Inhibition” value was -11% and the Z score was 1.08.
Regarding `O=C(c1ccc2ccccc2n1)N1CCC[C@H]1c1ccc2c(c1)OCCO2`, the “% Inhibition” value is reported as -4% and the Z score amounted to 0.85.
Taken in the same sequence, the figures for `O=C(Nc1cc(-c2ccccc2F)nn1-c1ccccc1)c1ccc(Cl)cc1` were -4% and 0.59.
With `CCn1c(CN2CCc3cncnc3C2)nc2cc(F)ccc21`, the “% Inhibition” value was 13% and the Z score is recorded as -1.39.
In the same order, the values of `Cc1nc(O)cc(CN2CCN(c3ccccc3Cl)CC2)n1` are -12% and 2.06.
Consider `O=C(C[C@@H]1NC(=O)NC1=O)NCCc1nc2ccccc2o1`, for which the “% Inhibition” value was 6% and the Z score is -1.09.
`CCNc1cc(N2CCN(C(=O)c3cccc(Oc4ccc(C)nn4)c3)CC2)nc(C)n1`: the “% Inhibition” value is reported as -25% and the Z score amounted to 2.21.
For the molecule `Cc1cc(CNC(=O)C2(Nc3nccs3)CCCCC2)ncn1`, the “% Inhibition” value is 0% and the Z score is recorded as -0.02.
In the same order, the values of `CCn1cc(CNC(=O)NC[C@H](O)c2ccc(OC)c(OC)c2)cn1` are -12% and 1.13.
Turning to `Cc1nc(CNC(=O)C[C@H](O)c2cc(Cl)cc(Cl)c2)oc1C`, the “% Inhibition” value is recorded as -6% and the Z score is recorded as 0.75.
In the case of `O=C(N[C@H]1C[C@@H](c2cc(=O)[nH]c(N3CCCC3)n2)C1)c1cn[nH]c1`, the “% Inhibition” value was -8% and the Z score was found to be 0.92.
For the molecule `Cc1noc(-c2nn(C)c3c2CN(S(=O)(=O)c2cccc(Cl)c2)CC3)n1`, the “% Inhibition” value is reported as -12% and the Z score came to 1.35.
Regarding `O=C(NCc1cc(F)cc(F)c1)c1ccc(CN2CCCCC2=O)cc1`, the “% Inhibition” value is listed as -5% and the Z score came out at 0.8.
With `COc1ccc(C)cc1S(=O)(=O)N1CCN(C2CCOCC2)C[C@H]1C`, the “% Inhibition” value is recorded as 7% and the Z score is -0.94.
For the molecule `COc1cccc(N(CC(=O)Nc2cccc(F)c2)CC(=O)Nc2cccc(F)c2)c1`, the “% Inhibition” value is reported as -14% and the Z score was found to be 1.64.
In the case of `Fc1ccc(F)c(CN2CCN(Cc3cnccn3)CC2)c1`, the “% Inhibition” value is reported as -10% and the Z score came to 1.26.
As for `Cc1cc(-c2c(-c3ccccc3)ncn2Cc2cc3ccccc3[nH]2)[nH]n1`, the “% Inhibition” value is -3% and the Z score is 0.33.
Regarding `CN(CCc1ncc(Br)cn1)C(=O)CCc1ccco1`, the “% Inhibition” value was -6% and the Z score amounted to 0.66.
In the same order, the values of `Cc1cc(C(=O)N2CCC(NC(=O)C3CCC3)CC2)c(C)n1C1CC1` are -5% and 0.49.
Turning to `CCOc1ncccc1NC(=O)CCCn1cncn1`, the “% Inhibition” value was -2% and the Z score was determined as 0.45.
In the same order, the values of `COc1ccc(NC(=O)COc2c(O)ccnc2C)cc1` are 1% and -0.07.
Turning to `Cc1ccc(-n2nc(-c3ccccc3F)cc2-c2ccccc2F)cc1Cl`, the “% Inhibition” value is 34% and the Z score is on record as -3.88.
For the molecule `CS(=O)(=O)c1ccc(-c2cncc3ccccc23)cc1`, the “% Inhibition” value was -13% and the Z score is recorded as 2.53.
Taken in the same sequence, the figures for `Cc1cnc(C2CC2)n1CC1CCN(C(=O)c2ccc3cc[nH]c3c2)CC1` were 12% and -1.64.
In the same order, the values of `COCCS(=O)(=O)N[C@@H](Cc1ccccc1)C1CC1` are -9% and 1.16.
With `C[C@@H](Cc1ccsc1)N1CCC(C(=O)Nc2ccccc2O)CC1`, the “% Inhibition” value came to 32% and the Z score is -3.67.
Taken in the same sequence, the figures for `Cn1cncc1CNCCOc1ccc2c(c1)OCO2` were -10% and 1.35.
As for `Cn1cc(-c2nc3cc(C(=O)O)ccc3[nH]2)c(-c2ccc3c(c2)OCCO3)n1`, the “% Inhibition” value is on record as -6% and the Z score is given as 0.74.
For the molecule `COC(=O)[C@@H](O)C(C)(C)NCc1ccc(Cl)c(F)c1`, the “% Inhibition” value is reported as -10% and the Z score stood at 1.49.
On to `O=C(O)C1(C(=O)NCC2CCN(CC3CC3)CC2)CCCCCC1`, for which the “% Inhibition” value was -5% and the Z score stood at 0.65.
For the molecule `c1csc(Cc2n[nH]c3c2CN(C2CCC2)CC3)c1`, the “% Inhibition” value is given as -3% and the Z score was determined as 0.44.
In the same order, the values of `CCN(C(C)=O)c1nc(COc2ccccc2C(N)=O)cs1` are -17% and 1.56.
For the molecule `Cc1ccc(NC(=O)N2C[C@@H]3C[C@H](NS(=O)(=O)c4ccccc4)[C@H]2C3)c(C)c1`, the “% Inhibition” value was 26% and the Z score is on record as -3.
With `CC(C)NC(=O)N[C@@H]1CC[C@H]2CCOc3ccccc3C(=O)N3CCN(C4CCOCC4)C[C@H]3C(=O)NC[C@H]1O2`, the “% Inhibition” value is reported as -1% and the Z score was 0.18.
Regarding `Cn1c(C(=O)N2C[C@H](C3CC3)[C@@H](N)C2)cc2cc(F)ccc21`, the “% Inhibition” value is -4% and the Z score is on record as 0.53.
For `CC(C)=CCC[C@H](C)N1CCC(=O)N(Cc2cc3c(cc2Cl)OCO3)CC1`, the “% Inhibition” value was -10% and the Z score stood at 1.81.
Consider `NC[C@H]1CN(C(=O)c2ccc3c(c2O)CCCC3)CCO1`, for which the “% Inhibition” value is -3% and the Z score is recorded as 0.61.
In the same order, the values of `COc1ccc(Cn2c(C)c(C)c(S(=O)(=O)c3ccccc3)c2N)cc1` are -9% and 1.16.
For the molecule `C[C@@H](Cc1ccc(Br)cc1)C(=O)NCc1ncnn1C`, the “% Inhibition” value was found to be 25% and the Z score is recorded as -2.82.
As for `O=C(CCc1ccccc1)Nc1ccc2c(c1)OCCO2`, the “% Inhibition” value is -3% and the Z score amounted to 0.42.
Turning to `CC1CCC(OC(=O)c2cnn(C)c2)C1` (stereo not drawn), the “% Inhibition” value is recorded as 0% and the Z score came out at 0.04.
Regarding `COc1cc(C)ccc1C(=O)N1CCC([C@H](C)N2CCN(C)CC2)CC1`, the “% Inhibition” value was -8% and the Z score is 1.54.
For the molecule `CCn1cc(C(=O)NC(c2ccccc2C)c2ccccc2C)nn1`, the “% Inhibition” value turned out to be 0% and the Z score is on record as -0.01.
For the molecule `Cc1nnc(O)nc1NCc1ccccc1Cl`, the “% Inhibition” value is -10% and the Z score came out at 1.42.
With `COCC1(c2noc(C[C@H]3CNCCS3(=O)=O)n2)CCCCC1`, the “% Inhibition” value is -3% and the Z score turned out to be 0.6.
Taken in the same sequence, the figures for `CCc1nsc(N2C[C@@H]3OC(=O)N(C4CCN(C(C)C)CC4)[C@@H]3C2)n1` were -2% and 0.44.
As to `CCC(C)N[C@H]1CS(=O)(=O)C[C@@H]1S(=O)(=O)c1ccccc1` (stereo partly drawn), the “% Inhibition” value is 13% and the Z score is -1.48.
Take `O=S(=O)(CC1CCCCC1)NCc1ccc2c(c1)OCO2`: the “% Inhibition” value worked out at 7% and the Z score is recorded as -0.92.
As to `COCc1noc(C[C@H]2CCOC3(CCN(C(=O)C(C)C)CC3)C2)n1`, the “% Inhibition” value was determined as 5% and the Z score was -0.61.
Taken in the same sequence, the figures for `COc1ccc(Cc2nc(-c3ccc4c(c3)OCCO4)cs2)cc1OC` were 1% and -0.14.
Turning to `CCc1n[nH]c2c1CN(CC(=O)N1CCc3ccccc31)CC2`, the “% Inhibition” value is reported as -5% and the Z score came to 0.92.
With `COCc1ccc(C(=O)N[C@@H]2COCC[C@@H]2OCCN(C)C)s1`, the “% Inhibition” value was -7% and the Z score came to 1.2.
In the same order, the values of `CC(C)(C)n1cc(C(=O)N2CCC3(CC2)NC(=O)NC3=O)cn1` are -3% and 0.41.
Turning to `COCCNC(=O)NC(=O)COC(=O)C1CCC1`, the “% Inhibition” value is -11% and the Z score worked out at 1.97.
With `CN(C)C(=O)CC1(CC(=O)Nc2nccs2)CCCCC1`, the “% Inhibition” value worked out at 1% and the Z score is on record as -0.26.
As for `CCC(=O)N[C@@H]1c2ccccc2C2(CCN(Cc3ccc(OC)c(O)c3)CC2)[C@H]1OC`, the “% Inhibition” value is given as -11% and the Z score is 1.39.
As to `CC(Cn1ccnc1)NC(=O)C1CC=CCC1` (stereo not drawn), the “% Inhibition” value is -3% and the Z score was 0.4.
Take `Cc1nnc([C@H](C)NC(=O)c2cc3c(s2)CCCC3)o1`: the “% Inhibition” value was -15% and the Z score came out at 1.89.
Taken in the same sequence, the figures for `COc1cc(-c2cccc(C(=O)N[C@H]3CCOC3)c2)cc(OC)c1OC` were -24% and 2.14.
For `Cc1n[nH]c(=O)c(C(=O)Nc2cc(C3CCCCC3)[nH]n2)c1C`, the “% Inhibition” value is on record as -7% and the Z score came out at 0.99.
For the molecule `CCc1ncc(NC(=O)N2CC[C@H](OCC(C)C)C2)cn1`, the “% Inhibition” value is reported as -1% and the Z score turned out to be 0.13.
Taken in the same sequence, the figures for `N#Cc1c(NC(=O)CC2(C(=O)O)CCCC2)sc2c1CCC2` were -9% and 1.85.
For `CCOC(=O)c1c(S(=O)(=O)NCC(=O)N2CCN(c3cccc(C)c3C)CC2)c(C)n(CC)c1C`, the “% Inhibition” value is reported as -7% and the Z score worked out at 1.08.
`Cc1ccc(NC(=O)NC[C@@]2(C)CCCCO2)c(N(C)C)n1`: the “% Inhibition” value is on record as -3% and the Z score is reported as 0.53.
Consider `Cc1ccc(CNS(=O)(=O)c2cc3c(s2)CCN(C(=O)C2CCC2)C3)cc1`, for which the “% Inhibition” value came to 8% and the Z score is on record as -1.45.
`Cc1ccc(C#N)c(NCc2nnc3n2CCCCC3)n1`: the “% Inhibition” value is given as 3% and the Z score is reported as -0.36.
Turning to `COc1ccc(C(=O)N[C@@H]2C[C@@H](CO)N(C)C2)c(OC)c1`, the “% Inhibition” value was determined as 8% and the Z score is on record as -1.33.
Taken in the same sequence, the figures for `Cc1ncc(S(C)(=O)=O)c(NCCn2nc(C)nc2C)n1` were -17% and 1.59.
With `Nc1nc2c(c(=O)n1CCCn1ccnc1)CCCC2`, the “% Inhibition” value is recorded as -3% and the Z score is reported as 0.46.
`O=C1C[C@@H]2CCN(C(=O)COc3ccccc3)C[C@@H]2CCOc2ccccc2N1`: the “% Inhibition” value is -2% and the Z score is reported as 0.22.
Taken in the same sequence, the figures for `CN(Cc1nncn1C)c1nc(C2CCCCC2)ns1` were 30% and -3.36.
As to `C[C@H]1CN(C(=O)c2cc(C(F)(F)F)n[nH]2)C[C@]1(O)C1CCC1`, the “% Inhibition” value was found to be 4% and the Z score was -0.67.
As to `Cc1cnccc1-c1cccc(-c2ccn(CCN(C)C)n2)c1`, the “% Inhibition” value is -5% and the Z score turned out to be 1.04.
In the same order, the values of `Cc1nn(-c2ccc(F)cc2)c2c1c(=O)c(C(=O)NC1CCCCCC1)cn2C` are -4% and 0.59.
In the same order, the values of `COc1ccc(C2(CC(=O)N3CCCC(C(C)=O)C3)CC(=O)N(C3CC3)C2=O)cc1` (stereo not drawn) are 5% and -0.69.

By % Inhibition is commonly meant the relative decrease from the control value, in per cent.
